The supplement of paper PMC11417369
± gives the standard deviation of the averaged measurements. The list shows a part of the results.

Test system: PfAP2-I AP2 domain 3 (GST-tagged)
Test: gcPBM binding intensity (ln(normalized median fluorescence intensity)); higher = stronger DNA binding
Procedure, shortened: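 GST-fused DNA-binding domains of P. falciparum, expressed in E. coli, were applied at about 25 μg on average for 1 h to an Agilent 4 × 180k array of primer-extended double-stranded 36-bp intergenic genomic probes and negative controls. Binding intensity is the highest Masliner-normalised natural-log median intensity across replicate spots of either probe orientation, measured with Alexa488 anti-GST antibody and a 488 nm scan.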

Sequence	gcPBM binding intensity (ln)
AGAAATATGTTGAAGCATTTATAATGTAGATATAAG [GTGCAC_negctrl_site640]	7.74 ± 0.47
AAAAAAAAAAAAAATACACACAAACACAAATTAAAT [CACACA_site5982]	8.05 ± 0.54
GTAATATTATAATATACACACATAGAATATATATAT [CACACA_site413]	8.74 ± 0.028
TTTATTATCAAGATTGCACACCCTTATGAACTTTTT [CACACA_site3166]	8.7 ± 0.37
TAATTTACACCTACGTGTACACACAAAAATATGTTT [XGTACX_site1868]	8.9 ± 0.28
ACAAAAAAAAAGGAAACACACAAAAAAAAAAAATAA [CACACA_site3523]	7.55 ± 0.63
ACTATATTTCTATAATGTACAAAAATAAATCATATG [XGTACX_site3337]	7.73 ± 0.37
ACCTATAAAAAATAATGTACAGGAAGAAATATAAGG [XGTACX_site5822]	8.16 ± 0.63
TAGGTCATATTTTTTGCACACAAAAAAAAATATAAA [CACACA_site3380]	8.745 ± 0.078
CACCTCAATATTCACATACACACAATATCATCGAAG [CACACA_site1675]	7.96 ± 0.5
TTTTTCCAATCAGATGCATGTTACTATATTTGGTTC [TGCATGCA_site52]	7.74 ± 0.96
TGTATAAGGTTTTTACGTTTTGAAGGATGTATTGTT [CACACA_negctrl_site1245]	7.68 ± 0.46
TATCATTTTGAAGTATGTACTTATTTTATTAAAATA [XGTACX_site7784]	7.96 ± 0.16
TAAATACATAAATACACACACATATATATATATATA [CACACA_site5549]	9.47 ± 0.66
ATTATATTAAAATATTCACACACTAACGTAAATCAT [CACACA_site8887]	7.51 ± 0.57
TACATAATTTTAATCACACACAAACAAACACATACA [CACACA_site194]	8.305 ± 0.064
GTAAGTATATATAATAGTACATATATATTAATATAT [XGTACX_site4314]	7.7 ± 0.48
TTTTGTTCATACAAATTGGAACAAGACAAAAATATA [XGTACX_negctrl_site327]	7.72 ± 0.51
GGGAGGATATTACACAGTACCCAGGAAATCTACGGA [XGTACX_site4874]	8.16 ± 0.13
TATGTTCCGAAGGTTGTACACACATAGAAATATACA [CACACA_site9285]	7.91 ± 0.47
TTTTTTTTTTTTGTAACATGCAAACAACAATATGGG [TGCATGCA_site695]	8.28 ± 0.48
ATGTAATTGTATACATGTACGCAAACACAAAAGCAT [XGTACX_site6771]	8.19 ± 0.42
AAGGAAAAAACAAATACACACAAAAACGCATTATAA [CACACA_site3466]	7.87 ± 0.71
ATGAACTTATTTTAGTGTACTAAAAAATATGACTTC [XGTACX_site470]	8.21 ± 0.35
